Data from paper PMC2621267, “The Influence of Catalysis on Mad2 Activation Dynamics” (PLoS Biology, 2009).

Legend:
[1] = biological target: Biotinylated Mad1:C-Mad2 complex (UniProt Q9Y6D9 1-718; Q13257); experiment: cell-based or functional assay
[2] = biological target: T1, Cdc20:C-Mad2 complex on the surface (UniProt Q12834 111-138; Q13257, biotin | Alexa 488 C5 maleimide, covalent label (residue not stated)); experiment: real-time confocal fluorescence in a flow chamber, signal in solution; same chamber with surface-held biotin-Cdc20 111-138; loss of Alexa-Mad2 fluorescence from solution followed; parameters of the curves laid over the data, [Cdc20T] = 0.9 uM; details: both partners purified
T1 construct: Cdc20, residues 111-138; as m6; as m4; it is not separately purified; source: formed in the flow chamber from surface-held synthetic biotin-Cdc20^111-138 and Alexa-Mad2^wt

[3] = biological target: T2, synthetic biotin-Cdc20^111-138 (UniProt Q12834 111-138, biotin); experiment: as above; details: both partners purified
T2 construct: Cdc20, residues 111-138; Held on the neutravidin-coated surface of the flow chamber through its biotin; also called biotinylated Cdc20 peptide; biotin-Cdc20 peptide^111-138; source: synthetic peptide
T2 peptide (looked up): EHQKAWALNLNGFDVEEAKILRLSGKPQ

[4] = biological target: T2, synthetic biotin-Cdc20^111-138; experiment: real-time confocal fluorescence on a surface in a flow chamber; biotin-Cdc20 111-138 (~1 uM) held on a neutravidin-coated chamber surface; Alexa-488-Mad2 injected at 1-8 uM in PBS; fluorescence on the surface followed; constants from a global fit of rate equations; details: both partners purified

Chain of UniProt Q9Y6D9 (Q9Y6D9 whole entry, chain 1 of 2): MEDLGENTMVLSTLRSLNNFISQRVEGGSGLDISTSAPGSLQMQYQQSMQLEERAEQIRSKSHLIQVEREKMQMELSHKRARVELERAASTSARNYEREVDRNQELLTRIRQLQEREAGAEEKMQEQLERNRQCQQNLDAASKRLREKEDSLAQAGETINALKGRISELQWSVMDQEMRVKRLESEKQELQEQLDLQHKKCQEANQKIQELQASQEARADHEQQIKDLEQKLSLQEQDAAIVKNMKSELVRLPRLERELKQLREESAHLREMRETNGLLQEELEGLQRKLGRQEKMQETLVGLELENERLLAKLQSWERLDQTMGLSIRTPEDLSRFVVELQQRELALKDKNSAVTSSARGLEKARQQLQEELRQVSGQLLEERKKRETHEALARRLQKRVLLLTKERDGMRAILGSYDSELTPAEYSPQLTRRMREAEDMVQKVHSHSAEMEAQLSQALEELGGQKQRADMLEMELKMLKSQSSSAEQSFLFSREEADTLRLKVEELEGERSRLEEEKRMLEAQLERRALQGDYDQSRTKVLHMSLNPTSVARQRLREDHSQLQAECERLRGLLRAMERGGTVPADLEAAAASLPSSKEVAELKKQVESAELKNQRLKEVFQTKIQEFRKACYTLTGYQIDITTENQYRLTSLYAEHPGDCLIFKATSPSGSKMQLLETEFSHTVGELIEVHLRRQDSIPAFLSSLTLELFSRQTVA
Chain of UniProt Q9Y6D9 (Q13257 whole entry, chain 2 of 2, further chain): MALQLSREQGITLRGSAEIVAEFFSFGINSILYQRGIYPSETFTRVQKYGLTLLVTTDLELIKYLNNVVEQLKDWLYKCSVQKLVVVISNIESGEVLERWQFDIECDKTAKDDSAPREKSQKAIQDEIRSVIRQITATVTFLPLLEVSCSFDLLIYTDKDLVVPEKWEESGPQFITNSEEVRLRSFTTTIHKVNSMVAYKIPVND

rate of accumulation of 2 uM Alexa-Mad2^wt on a surface with ~1 uM Cdc20 111-138 and interspersed 0.25 uM Mad1:C-Mad2, against the surface without Mad1:C-Mad2 [1]: 3 fold
Kd [2]: 2450 nM
kon [2]: 700000 M⁻¹ s⁻¹
k cat,on (catalysed association, reaction 5) [3]: 0.00175 µM⁻¹ s⁻¹
k cat,on (catalysed association, reaction 5) [4]: 0.003 µM⁻¹ s⁻¹
B1: Alexa Fluor 488-labelled Mad2^wt (natural protein)
chain: not shown
modifications: Alexa 488 C5 maleimide, covalent label (residue not stated)
notes: Mad2, wild type, full length; monomeric O-Mad2 after labelling; Labelled form of m1; also called Alexa-Mad2^wt; Alexa-488-Mad2^wt; source: purified as described [14], labelled with Alexa 488 C5 maleimide, separated from free dye on Superdex-75
